# Measurements: PubChem BioAssay AID1347417 (National Center for Advancing Translational Sciences (NCATS), 2020)
# About 5,300 (4.4%) of roughly 120,000 compounds were called active. The shares of active, inactive and inconclusive entries below differ from those in the screen. Calls come from the whole dose curve; as a rule, active = well fitted inhibition curve with a large enough effect; inconclusive = small, poorly fitted or top-dose-only effect; inactive = no such curve, though single readings can be large or run the other way. A potency beside an inconclusive call is a rough fit, not a confirmed value.
# Assay: qHTS Primary assay for Inhibitors of Plasmodium falciparum Dd2 growth in vitro; note: nearly all actives have a fitted effect of over 65% in size;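 for activity, negative = inhibition: plate controls were DMSO vehicle for no effect and reference drug for full effect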
# Conditions: P. falciparum Dd2 growth, SYBR Green, 72 h; activity, negative = inhibition: at 28.9 µM (top of the series) unless noted; series mostly up to 28.9 µM
# Procedure, shortened: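 Infected erythrocytes (Dd2, 0.3% parasitemia, 2.5% hematocrit final) are added to compound in RPMI-1640/Albumax II medium, grown 72 h at 37C in low oxygen, then lysed with saponin/Triton-X containing SYBR Green and read by fluorescence.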
# Potency is the fitted concentration of half-maximal effect; tags give direction and shape of the fitted curve.
Compound,Potency,"activity, negative = inhibition",outcome
CN(Cc1ccccc1)C(=O)[C@H]1C[C@@H](O)[C@H](O)[C@@H]2N=C(Nc3ccc(-n4cccn4)cc3)S[C@@H]21,"inconclusive: 8.91 µM [inhibitor, partial curve, poor fit]",–,–
CC1CCN(Cc2nnnn2CCCC(=O)N2CCN(CCO)CC2)CC1,–,inactive: 1.23%,–
CCN(C(=O)c1cc2c(Cl)nc3ccccc3c2s1)c1cccc(Cl)c1,active: 10 µM,–,–
CCCOc1ccccc1CCCNC(=O)[C@H]1CCC[C@@H](O)C1,–,inactive: -12.5%,–
Cc1nonc1CC(=O)N1CCC(c2nnc(Cn3cccn3)n2C)CC1,–,inactive: 16.2%,–
CCc1nc2c(c(-c3ccc(Cl)cc3)n1)CN(Cc1ccccc1)CC2,"inconclusive: 17.8 µM [inhibitor, single point]",–,–
CCc1ccc(CNC(=O)C(CC)n2ccc3cc(S(=O)(=O)N4CCCCC4)ccc32)cc1 (stereo unspecified),–,inactive: -20.1%,–
O=C(CC1CCCCN(Cc2ccccc2)C1=O)N1CCc2ccccc2C1 (stereo unspecified),"inconclusive: 12.6 µM [inhibitor, single point]",–,–
COc1cccc(C(=O)N2CCOCC2CC(=O)N2CCNC(=O)C2)c1 (stereo unspecified),–,inactive: 9.49%,–
COc1cc(F)ccc1-c1cc(C(=O)NCCc2cnc[nH]2)c2c(c1)N(C)CCO2,–,inactive: -13.5% [at 44.1 µM],–
CCOC(=O)C1CCCN(C(=O)C2CCN(c3nnc(C)c4c(C)n(-c5ccccc5)nc34)CC2)C1 (stereo unspecified),active: 10 µM,–,–
COCCCNC(=O)N1CCN(C(=O)N2CC3CC(C2)[C@H]2CCCC(=O)N2C3)CC1 (stereo partly specified),–,–,inactive
Cc1cc(NC(=O)CSc2nc3c([nH]c4ccccc43)c(=O)n2-c2cccc(Cl)c2)no1,"inconclusive: 17.8 µM [inhibitor, single point]",–,–
Clc1ccc(-c2noc3ncnc(NCCCN4CCN(c5ccccc5)CC4)c23)cc1,active: 11.2 µM,–,–
O=C1[C@@H]2C[C@@H](O)CN2C2(CN(Cc3cccc(OC(F)(F)F)c3)C2)C(=O)N1Cc1ccccc1F,–,–,inactive
COc1ccc(N2Cc3cccc(C(=O)Nc4ccc(C(C)C)cc4)c3C2=O)cc1,–,inactive: -9.22%,–
CC(=O)c1ccc(C(=O)N(CCCN(C)C)c2nc3c(C)c(C)ccc3s2)cc1,"inconclusive: 3.98 µM [inhibitor, single point]",–,–
Cc1ccc(C2=NC3(CCN(C(=O)c4ccc5[nH]ccc5c4)CC3)ON2)cc1,"inconclusive: 6.31 µM [inhibitor, partial curve, poor fit]",–,–
CS(=O)(=O)NCC(c1ccco1)N1CCN(c2ccccc2)CC1 (stereo unspecified),–,inactive: -9.53%,–
Cc1ccc(OCCn2c(CNc3cccc(C)c3)nc3ccccc32)cc1,"inconclusive: 17.8 µM [inhibitor, single point]",–,–
COC[C@@H]1CN(Cc2cccc(OC)c2)C[C@H]1C(=O)NC1CC1,"inconclusive: 5.01 µM [inhibitor, partial curve, poor fit]",–,–
COCCNCc1ccc(-c2ccc(F)cc2)o1,"inconclusive: 5.62 µM [inhibitor, partial curve]",–,–
CCc1ccccc1N(C)C(=O)C1CCCN(c2ncnc3onc(-c4ccc(F)cc4)c23)C1 (stereo unspecified),"inconclusive: 6.31 µM [inhibitor, partial curve]",–,–

Compound,Potency,"activity, negative = inhibition",outcome
O=C1NC(=NC2CCCC2)C2(CCN(Cc3ccccc3)C2)N1c1cc(F)cc(F)c1 (stereo unspecified),active: 1.41 µM,–,–
Cc1ccc(NC(=O)c2sc(-n3nc(C)c(CCC(C)C)c3C)nc2C)cc1C,"inconclusive: 17.8 µM [inhibitor, single point]",–,–
Cc1nc2ccn(Cc3cccs3)c(=O)c2cc1C(=O)N1CCN(c2ccc(F)cc2)CC1,"inconclusive: 20 µM [inhibitor, partial curve, poor fit]",–,–
COCCN1CCCCCC(O)c2cc(C(=O)N3CCN(c4ncccn4)CC3)ccc21 (stereo unspecified),–,–,inactive
CCC(=O)N1CCN(c2nc3c(s2)CC(C(=O)NCc2ccccc2)CC3)CC1 (stereo unspecified),active: 7.94 µM,–,–
CCNC(=O)N1CCCC1c1noc(CCC(=O)NC2CC2)n1 (stereo unspecified),–,inactive: -12.2%,–
COc1ccc(C(=O)N2[C@@H]3CC[C@H]2CC(NC(=O)c2ccncc2)C3)cc1F (stereo partly specified),–,inactive: 4.7%,–
O=C1CC(c2ccccc2)N(Cc2ccncc2)CCCN(C(=O)C2CCOCC2)CCN1 (stereo unspecified),"inconclusive: 17.8 µM [inhibitor, single point]",–,–
O=C(Nc1ccc(F)c(Cl)c1)N(Cc1ccc2c(c1)OCO2)C1CCN(Cc2ccccc2)CC1,active: 8.91 µM,–,–
COc1ccc(-c2cc(N3CCC(NC(=O)COc4cccc(C)c4)CC3)n[nH]2)cc1,"inconclusive: 2.24 µM [inhibitor, partial curve, poor fit]",–,–
NCc1ccc(-c2ccc(F)cc2)cc1,active: 10 µM,–,–
CN(c1ccccc1)c1ccc2nnc(-c3cc(C(=O)N4CC(O)C4)ccn3)n2n1,"inconclusive: 31.6 µM [inhibitor, single point]",–,–
CS(=O)(=O)N(C1CC1)C1CCOC2(CCNCC2)C1 (stereo unspecified),–,inactive: 7.81%,–
O=C1C2CN(Cc3ccc4[nH]ccc4c3)CCC2OCCN1Cc1ccccc1F (stereo unspecified),"inconclusive: 25.1 µM [inhibitor, single point]",–,–
FC(F)(F)CN1C2CCC1CN(c1ccc(-c3ccccc3)nn1)C2,"inconclusive: 14.1 µM [inhibitor, single point]",–,–
Cc1ccc(-c2nnc([C@H]3CCN(C(C)C)C3)o2)cc1,–,–,inactive [at 44.1 µM]
CC(C)CN1C(=O)c2ccccc2C(C(=O)NCc2ccccn2)C12CCCC2 (stereo unspecified),–,inactive: -1.43%,–
Cc1cnc(C(=O)NC2CCN(C(=O)N3CC4CC(C3)[C@H]3CCCC(=O)N3C4)CC2)cn1 (stereo partly specified),–,–,inactive
COc1ccc(-c2onc(C)c2C(=O)N(C)Cc2cc(OC)c(OC)c(OC)c2)cc1,active: 10 µM,–,–
Cc1cccc(NC(=O)Cn2cccc2-c2nc(-c3ccc(F)cc3)no2)c1,"inconclusive: 8.91 µM [inhibitor, single point]",–,–
CCc1ccc(NC(=O)c2ccc3c(c2)N(Cc2ccc(C)cc2)CCS3)cc1,active: 8.91 µM,–,–
O=C(CN1CCOCC1)N1CCC(N2C(=O)C3(CCCC3)C2c2ccccc2)CC1 (stereo unspecified),"inconclusive: 11.2 µM [inhibitor, single point]",–,–
Cc1ccc(C)n1-c1nnc(N2CCC(C(=O)Nc3ccccc3Br)CC2)s1,"inconclusive: 17.8 µM [inhibitor, single point]",–,–
